Results taken from the supplement of paper PMC10681739.
Whole data set: some 2,700 sequences, median “arbitrary fluorescence units” near 4,100, cut for the highest 2% near 54,000. This is one part of the list.

What follows are sequences tested against T1, ETS1 (UniProt P14921) (assay: ETS1 binding intensity (PBM fluorescence) (arbitrary fluorescence units); higher = stronger binding). Conditions: ETS1 concentration 10 nM.
T1 sequence: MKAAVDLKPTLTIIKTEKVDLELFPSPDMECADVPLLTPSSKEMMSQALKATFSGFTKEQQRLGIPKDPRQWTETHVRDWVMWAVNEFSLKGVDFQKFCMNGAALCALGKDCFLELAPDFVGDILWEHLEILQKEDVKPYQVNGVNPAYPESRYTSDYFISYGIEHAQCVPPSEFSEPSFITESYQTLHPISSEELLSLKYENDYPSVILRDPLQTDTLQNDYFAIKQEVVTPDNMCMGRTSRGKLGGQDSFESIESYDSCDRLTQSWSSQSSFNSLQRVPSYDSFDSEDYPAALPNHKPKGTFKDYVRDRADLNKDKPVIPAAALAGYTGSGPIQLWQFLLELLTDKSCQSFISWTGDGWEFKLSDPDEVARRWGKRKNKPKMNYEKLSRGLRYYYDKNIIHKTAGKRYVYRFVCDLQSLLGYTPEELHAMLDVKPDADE
Procedure: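 gcPBM on wild-type 36-bp genomic probes with two neighbouring ETS1 sites (4-24 bp apart). Recombinant human ETS1 (10 nM) was detected with anti-ETS1 antibody fluorescence. Values are medians over 3 replicate spots. The probes sit in constant array flanks that are not printed.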

Row | Sequence | ETS1 binding intensity
1 | CCGAAGGAAGCAGCTGATTGAGTTCTCATCCTGCCT | 188
2 | GCACCAGGAAGTCCCCTTGCCTAGGTTTCCTCTCCT | 2030
3 | AGCCTTTGTATTTCCTTTCAGAGGAAACCCCAATGC | 5570
4 | ACAGCTTCCGGCGTGCTCCGCAACAGCTTCCGGCGT | 50500
5 | ATTCACCCCAGGAAAGACAAGCGGAAGAACCACTCA | 261
6 | TGTGGCTTCCTGTGTCTGGTGCCATCAGGAAGTAGC | 27900
7 | AAGTCAGGAAACAACAGATGCTGCAGAGGATGTGGA | 370
8 | ACCGCTCAAGACCGGAAGCGGAAATGGAATCGAGAT | 24100
9 | GAGCGGAAGTGGAAAAGACTAACTTCCGGCCTCGGG | 30600
10 | CGAGACTTCCTCTTTGACTCAACCACTTCCTATAAG | 20600
11 | AAACAAAACCCACAGGAAGGAAGCCAGCGAAGGAGA | 382
12 | GAAAGCCGGAAAGGTTTTACGCAACAGGAACTCAAG | 757
13 | CGAGGCTCGTTCCGGTAGCGGGAGGAAGACTGGAGG | 1690
14 | TGGGCCTCCAGGAAGCCTGGGGAGGATGTAGGCAGA | 288
15 | CTGCCTGGAGGAAGTTACACTCCATCCGCATGAGTG | 834
16 | GGTTTCCTCTTACTGGAATTTCCTCCCGCCCTCCCT | 6510
17 | TCATTGTGTGCTTCCTCTTTCAGGAAGGGCTGCCTT | 2740
18 | ACATTCAGGCATTTCCTTACATCCTCTGAAATCTGG | 2070
19 | CCCAAGGAAATCTGCCTCCAATAAACCAGGAAATGT | 181
20 | GGCAGCCATCCGCAGGGTCAGCGCCATCCTGTGCAG | 392
21 | GCCTAGGAAGTGACTTAAAAGGCTGTCAGGAAACGC | 1420
22 | AAATTGCTTCCTGAACTGACCCTGCCGGAAACCCGT | 5210
23 | CCAGCTCATTTCCTGCCATTGCCCTTCCTGCACCCT | 29600
24 | GTGCTGCGCTGTTCCGGGCCCGGATGGTTACCGTCC | 325
25 | GTTCCCTGTATTTCCTGTAGATTTCCTGCATACCTT | 13800

Row | Sequence | ETS1 binding intensity
26 | ACTCCGGAAACATTCAAAATAGTCTCCCTTCCTCAG | 2820
27 | CGCCGCGTCAACTTCCGGGCGGATGCCCGCCAGCAC | 23700
28 | CGCCATCTTCCGCTCCACTAGCGTGTTCCGGGCGGT | 7100
29 | TCTTTTCAGTGTTTCCGGCTAGGAAATTTAAATGTT | 18000
30 | CCAGCCACTGCATCCGGCGGCCGGATCTAACTTACC | 16700
31 | CTAGTTTTGCATCCTGTGGCAACTTCCTGCTAGAAT | 11900
32 | CTCTGCCCAGGAAAACGGAGGGCAGGAAACGTCTCC | 444
33 | AAATTGGCAAGGAAATGAGCCCAGGAAGTAAGTTGG | 913
34 | GAAGTCTTTGCACTTCCGTCTTCCGGGCGGAGGCCA | 10500
35 | TTCTATGGCTCCATCCTGCTTTCCGGCTGTCGCCCT | 1620
36 | TCACCCTCCAGGATGGCTGCTCCATCCTGTGCCCTC | 273
37 | CAACAGGAAATACATACCTGTCCTGAGAGGAAGCAC | 7320
38 | GCTCCGCCCCCGGAAGCCTCACTTCCGGGCGCGAGC | 25300
39 | TTTGAAGGAAGTGGCCTGGGCTGCGAAGGAAACATT | 625
40 | CCCAAAGACAGGATGAGGCTCCAGGAAAATGACTAA | 762
41 | ACCCTCACAGGAAGTCGCACCTGAGGAAATCATCAC | 9450
42 | CCGTACGGAAGTGTGCTTTGGCGCACCGGAAGCCGA | 8500
43 | CTTCGCCTTCCGCTGTGAATAATAGCTTCCTGAGGC | 10100
44 | CTTTTTTCCGCTCTTCTCCCTCCTGCAGGAAACAGC | 6640
45 | GTCCCACTGGAGAGGAAGGGGAAGTGGAGTCATAGG | 277
46 | CACCACATCCTCCTGTTTCAGGCACAGGATACCCTC | 7700
47 | GCCCAGGAAGCGAGAGCGCCGCCCACCCATCCGGGG | 650
48 | CCTGACGCATTTCCTGCCGGGGCTTCCGGGGCACCG | 35400
49 | CGCTGCCGGAATTCGTCTTGCCTGACGGAAGCTGGG | 517
50 | AAACAGGAAGAGAGAAATGTAGAAAACAGGATGAAT | 717

Row | Sequence | ETS1 binding intensity
51 | TCACACTGCGTGCATCCTGTTTCCTGTCGACAGTGG | 17800
52 | GTAGAGGATGCTCCCCTCCGGCCGCCGCGGAAGCCG | 269
53 | ATGTGGTGCCGCAGGAAGCGGAAGCCCAGCAGCGTG | 1440
54 | CTCTGTGACTTCCTGGAGACTCACTTCCTAGATGAG | 11300
55 | TACTAAAGCATCCGCCCTCAGTCCTTCCTGAGGGCT | 6830
56 | GCCGTTCACTTCCGCCACCAGCCGGAAGTTTTCTGT | 33000
57 | TTCCCTTCCTGAGCCTGCTGAGATGCAGGAAGTAAA | 1330
58 | GAGAGGGAGGAAGGCTCAGAGGCAGGAAGAGGAGGA | 282
59 | GACCGGATGTGGTTGTGGCTGAGGTCAGTTCCGGCG | 21200
60 | ACGTCATCCGGCCACCCCGGCACGCGCCGGAAGTGC | 16900
61 | TGCGACATATTTTCCGGAGTCCGGAAGCAGCTACTG | 2400
62 | AAGACTTCTACTTCCGGAGACTTCCTCATGCCATGC | 33400
63 | GAAAGAACATCCTGTGCCCGTCGCCGGATGCGCGCG | 25700
64 | GTCCCAGGAAGCAACGCGTGTCCGTTTTCCGGGCGC | 1150
65 | GAATTCGAGTTCCGCCTCCTACCAGGAAGAACCGGC | 1950
66 | GCCCCGGAAGCGACGGCTTCGCTGCCCCGGAAGTGG | 10100
67 | TGATGCCACCACTTCCTCACTTCCTGTAGCCACACA | 17400
68 | AGAAAGTACTTCCTGGATTGTCCAGGAAGTAGTCCT | 19100
69 | GACAGGAAGTAGCTGACACTCCATGCCAGGAAGTAG | 13600
70 | GGGGACCGGAAGCCAGCGGCAACAACTTCCGGCGGG | 23100
71 | CGGCGCGGGCGCGGAAGGCAGGAAGTGCCGCGGCGC | 3380
72 | TTTGTTCCCCTTCCTGACTCACTTCCTGCCAGTGAT | 10000
73 | TTTGCCAGGAAAACAACTTCAGGCAGGAAATGACCA | 852
74 | TCTTCTCCATCCGTTGGAGACACCGGAAACGCGCTG | 7140
75 | ATGGTAGATAACATCCGCCCCATCCGCTGGTCCCAT | 11300

Row | Sequence | ETS1 binding intensity
76 | GATGCAGGAAGTGAGACAAACATCTGCTTCCTGCAG | 11200
77 | GCTGGAGGAAACAGGGCTGACACCACAGGAAACCTG | 362
78 | CCGGGCCGTGGCAGGAAGCCGGAAGCAGCCGCGGCC | 5680
79 | TCCTGCCTCAGGATGCCGGGGGAGGAAGAGGAGCGG | 258
80 | CGCTGAACTTCCCGAGCTCGGGGTGGGATGTGGCCG | 734
81 | TGTACTTTAGGCTTCCTCTCAGGAAGTTCGGATTGA | 1120
82 | AAGAAGCGGAAGAGGAAGCTGGATAAGTCCGCCGCC | 3490
83 | ATTGAACTTCCTTCGCTCGGGCCCATTTCCTCAGCT | 5210
84 | GTATGTGTCTTCCGGCCAGCTCTCTTCCTGCTTCTG | 12900
85 | AACTCATTTCCTGAAGAAGCCCAGAGGAAACCGAGA | 12800
86 | ACATAACAGGAAATTTCAAATAACAGGAAACCAAGA | 6000
87 | GTGCAGGATGCAGTTGCAAAGGAGCGCTTCCGATCG | 1100
88 | AAGGCCCAGGAAGCCACTGCTGCAGGAAGTGTCCTG | 752
89 | CCACTGTGGCTAAGGAAACAGGAAGCTGCCTCTCCT | 1620
90 | TGCCCAGGAAGGCCTCATGGCGGTACCGGAAGCTCC | 929
91 | TTCCAAAGCTGTTTCCTTACTTCCCTTTGTTGCTAT | 639
92 | CCTCAACTTCCTGGGCTCAAGTGGTTTTCCTGCCTC | 13000
93 | GCGCGGGACTCGGTTCCGCGGAAATCGGAAATCGAA | 188
94 | GGTAGGGCTTCCGCCCGGGGCTGCTTCCGGCCTCGG | 17100
95 | GCAATAAAGGAAATGAGTAGGATTTTCCTGTGTTTT | 2430
96 | CTAACGGTTTCCTCTGGGTAAGCACTTCCGCCCTCC | 7030
97 | TATGTATTTCCTTATTGCAAAGGGCGGAAACGTGTA | 3980
98 | CAAGCGGAAGTGGGGCTGCGCTGGCGCTTCCTCTTC | 11700
99 | AGCGGAAACTACGGAAACATAGGAAAAGGGCTGACT | 1280
100 | CCGGAGACATCCGCCCAGGCCCGCTTCCGGGAGGAA | 15300

Row | Sequence | ETS1 binding intensity
101 | CCCACTTCCTGCCTCACCCTGAAGATCTTCCGGGCA | 56900
102 | GGAAAGACGGCAGGAAATGGGGAAGTGGGAGGGAGA | 6220
103 | ATGCCAGGAAACAACAGATGCTGGAGAGGATGTGGA | 429
104 | TCATTAGGCGGAAAGCGAAACCCGGAAGTGACGCTC | 4240
105 | AACACTTCCTCTGCCTTGCAATGGGAGAGGAAGTAA | 15700
106 | GCCCACATCCGGGGCCCAGAGCGCCGCGGAAACGCC | 48700
107 | ACCACCTGGACAGGAAGACAGGATGTGAACTTCAGA | 4170
108 | TTAACTCCTGGACTTCCGCTTCCGGGGTGCCCAGGC | 24900
109 | GACGGACACCCGTTTCCGCTTCCGGGTCACGCTTCT | 20900
110 | ACTTGACCCGGAACCATCAGCTGTTTCCTTTCACCT | 272
111 | GCGCGCCACTTCCGACCTGTGCCGGAAAAGCCCATA | 8270
112 | GTCACTTCCGGCGCCCGCCTACACGCACTTCCGTTC | 88200
113 | TAACAGGAAGCATGACTGGGAGGCCTCAGGAAACTT | 2750
114 | AGTTTGAAGGCTCCGGAACTTCCGTCCTGGGAGGTT | 2920
115 | TTTAGTTCTCTTCCTGTTTGTACATCCTTGTGGTAA | 14100
116 | TCCCCAGGAAAGGAGGAGGGTGGGCCGGAAGAAAGG | 295
117 | AGTTCAGAGGCCGGAAGCCCAGGAAGAGAGGGACAC | 6000
118 | TGTCAGGAAGCCACAGGGGGAGTGTGGCTTCCTGAG | 352
119 | CCGGCACTTCCGGCAGGCCAGGGCACTTCCGGGACC | 58000
120 | CTCTGGCATATCAGGAAATAGGAAATGATCTCACCA | 1170
121 | GCCCTATCAGCACATCCGCAGGAAACACCTGCAGAA | 4750
122 | CCAACAGGATTTAAACAGGCGGTGACAGGAAGGGGG | 320
123 | GCCCCAGCTTCCGGCCTCCGGCGGCTTCCGCGTCGC | 52900
124 | ATTTGAAGAGCCAGGAAGGAGGAAATGCAGAGTGCA | 287
125 | CCAAGCTGCGAAGCTTCCTTCCTGTCTTGAGGTTTC | 3950
